# The supplement of paper PMC8728848
# The list shows a part of the results.
# How the values were obtained:
# Test in all cases: glycan array binding signal (z-score within array); higher = stronger binding
# Settings in all cases: glycan notation: IUPAC condensed, linker removed
# [1] = target: Gal(b1-4)GlcNAc(b1-3)Gal(b1-4)GlcNAc(b1-3)Gal(b1-4)GlcNAc(b1-3)Gal(b1-4)GlcNAc(b1-2)Man(a1-3)[Gal(b1-4)GlcNAc(b1-3)Gal(b1-4)GlcNAc(b1-3)Gal(b1-4)GlcNAc(b1-3)Gal(b1-4)GlcNAc(b1-2)Man(a1-6)]Man(b1-4)GlcNAc(b1-4)[Fuc(a1-6)]GlcNAc
# Outline: (§1)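 From the Consortium for Functional Glycomics database, 3228 arrays were curated, keeping only those whose protein sequence was available. Binding is given as a within-array Z-score averaged across arrays sharing a protein sequence and across linkers. Negative Z-scores can be read as non-binding.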
# [2] = target: Gal(b1-4)GlcNAc(b1-3)Gal(b1-4)GlcNAc(b1-3)Gal(b1-4)GlcNAc(b1-3)Gal(b1-4)GlcNAc(b1-2)[Gal(b1-4)GlcNAc(b1-3)Gal(b1-4)GlcNAc(b1-3)Gal(b1-4)GlcNAc(b1-3)Gal(b1-4)GlcNAc(b1-6)]Man(a1-6)[Gal(b1-4)GlcNAc(b1-3)Gal(b1-4)GlcNAc(b1-3)Gal(b1-4)GlcNAc(b1-3)Gal(b1-4)GlcNAc(b1-2)Man(a1-3)]Man(b1-4)GlcNAc(b1-4)[Fuc(a1-6)]GlcNAc
# Outline: as §1
# [3] = target: Gal(b1-4)GlcNAc(b1-3)Gal(b1-4)GlcNAc(b1-3)Gal(b1-4)GlcNAc(b1-3)Gal(b1-4)GlcNAc(b1-3)Gal(b1-4)GlcNAc(b1-2)Man(a1-3)[Gal(b1-4)GlcNAc(b1-3)Gal(b1-4)GlcNAc(b1-3)Gal(b1-4)GlcNAc(b1-3)Gal(b1-4)GlcNAc(b1-3)Gal(b1-4)GlcNAc(b1-2)Man(a1-6)]Man(b1-4)GlcNAc(b1-4)GlcNAc
# Outline: as §1
# [4] = target: Gal(b1-4)GlcNAc(b1-3)Gal(b1-4)GlcNAc(b1-3)Gal(b1-4)GlcNAc(b1-3)Gal(b1-4)GlcNAc(b1-3)Gal(b1-4)GlcNAc(b1-2)Man(a1-3)[Gal(b1-4)GlcNAc(b1-3)Gal(b1-4)GlcNAc(b1-3)Gal(b1-4)GlcNAc(b1-3)Gal(b1-4)GlcNAc(b1-3)Gal(b1-4)GlcNAc(b1-2)Man(a1-6)]Man(b1-4)GlcNAc(b1-4)[Fuc(a1-6)]GlcNAc
# Outline: as §1
# [5] = target: Gal(b1-4)GlcNAc(b1-3)Gal(b1-4)GlcNAc(b1-3)Gal(b1-4)GlcNAc(b1-3)Gal(b1-4)GlcNAc(b1-3)Gal(b1-4)GlcNAc(b1-2)[Gal(b1-4)GlcNAc(b1-3)Gal(b1-4)GlcNAc(b1-3)Gal(b1-4)GlcNAc(b1-3)Gal(b1-4)GlcNAc(b1-3)Gal(b1-4)GlcNAc(b1-6)]Man(a1-6)[Gal(b1-4)GlcNAc(b1-3)Gal(b1-4)GlcNAc(b1-3)Gal(b1-4)GlcNAc(b1-3)Gal(b1-4)GlcNAc(b1-3)Gal(b1-4)GlcNAc(b1-2)Man(a1-3)]Man(b1-4)GlcNAc(b1-4)[Fuc(a1-6)]GlcNAc
# Outline: as §1
# [6] = target: Gal(b1-4)GlcNAc(b1-3)Gal(b1-4)GlcNAc(b1-3)Gal(b1-4)GlcNAc(b1-3)Gal(b1-4)GlcNAc(b1-3)Gal(b1-4)GlcNAc(b1-3)Gal(b1-4)GlcNAc(b1-2)Man(a1-3)[Gal(b1-4)GlcNAc(b1-3)Gal(b1-4)GlcNAc(b1-3)Gal(b1-4)GlcNAc(b1-3)Gal(b1-4)GlcNAc(b1-3)Gal(b1-4)GlcNAc(b1-3)Gal(b1-4)GlcNAc(b1-2)Man(a1-6)]Man(b1-4)GlcNAc(b1-4)GlcNAc
# Outline: as §1
# [7] = target: Gal(b1-4)GlcNAc(b1-3)Gal(b1-4)GlcNAc(b1-3)GalNAc
# Outline: as §1
# [8] = target: Gal(b1-4)GlcNAc(b1-3)Gal(b1-4)GlcNAc(b1-3)[Gal(b1-4)GlcNAc(b1-3)Gal(b1-4)GlcNAc(b1-6)]GalNAc
# Outline: as §1
# [9] = target: Gal(b1-4)GlcNAc(b1-3)Gal(b1-4)GlcNAc(b1-6)[Gal(b1-3)]GalNAc
# Outline: as §1
# [10] = target: Gal(b1-4)GlcNAc(b1-3)Gal(b1-4)[Fuc(a1-3)]GlcNAc(b1-3)Gal(b1-4)[Fuc(a1-3)]GlcNAc
# Outline: as §1
# [11] = target: Gal(b1-4)GlcNAc(b1-3)GalNAc
# Outline: as §1
# [12] = target: Gal(b1-4)GlcNAc(b1-3)[Fuc(a1-3)GlcNAc(b1-6)]Gal(b1-4)Glc
# Outline: as §1
# [13] = target: Gal(b1-4)GlcNAc(b1-3)[Gal(b1-4)GlcNAc(b1-6)]Gal(b1-4)GlcNAc
# Outline: as §1
# [14] = target: Gal(b1-4)GlcNAc(b1-3)[GlcNAc(b1-6)]Gal(b1-4)GlcNAc
# Outline: as §1
# [15] = target: Gal(b1-4)GlcNAc(b1-6)Gal(b1-4)GlcNAc
# Outline: as §1
# [16] = target: Gal(b1-4)GlcNAc(b1-6)GalNAc
# Outline: as §1
# [17] = target: Gal(b1-4)GlcNAc(b1-6)[Gal(b1-3)]GalNAc
# Outline: as §1
# [18] = target: Gal(b1-4)GlcNAc(b1-6)[Gal(b1-4)GlcNAc(b1-3)]GalNAc
# Outline: as §1
# [19] = target: Gal(b1-4)GlcNAc6P
# Outline: as §1
# [20] = target: Gal(b1-6)Gal
# Outline: as §1
# [21] = target: Gal3S(b1-3)GalNAc
# Outline: as §1
# [22] = target: Gal3S(b1-3)GlcNAc
# Outline: as §1
# [23] = target: Gal3S(b1-3)[Fuc(a1-4)]GlcNAc
# Outline: as §1
# [24] = target: Gal3S(b1-4)Glc
# Outline: as §1
# [25] = target: Gal3S(b1-4)Glc6S
# Outline: as §1
# [26] = target: Gal3S(b1-4)GlcNAc
# Outline: as §1
# [27] = target: Gal3S(b1-4)[Fuc(a1-3)]Glc6S
# Outline: as §1
# [28] = target: Gal3S(b1-4)[Fuc(a1-3)]GlcNAc
# Outline: as §1
# [29] = target: Gal3S(b1-4)[Fuc(a1-3)]GlcNAc6S
# Outline: as §1
# [30] = target: Gal3S4S(b1-4)GlcNAc
# Outline: as §1
# [31] = target: Gal3S6S(b1-4)GlcNAc
# Outline: as §1
# [32] = target: Gal3S6S(b1-4)GlcNAc6S
# Outline: as §1
# [33] = target: Gal4S(b1-4)GlcNAc
# Outline: as §1
# [34] = target: Gal4S6S(b1-4)GlcNAc
# Outline: as §1
# [35] = target: Gal6P(b1-4)GlcNAc
# Outline: as §1
# [36] = target: Gal6S(b1-3)GlcNAc
# Outline: as §1
# [37] = target: Gal6S(b1-3)GlcNAc6S
# Outline: as §1
# [38] = target: Gal6S(b1-4)Glc
# Outline: as §1
binder,measurement,setting,value
GS13846A-bth-444-19-444 (Bacteroides thetaiotaomicron) (protein) SCENEFDVSDKADSLISVTVNTLNNQAAYNVGETAQAELWIQRGGLKDASGKVQFVVDPLLLDSLNQEDKTNYELLPENCYEMTNTEFTVDKNELCGYITYHPEKILALSAYNETKYVLPLRLISNDLAINPARNTSFLAFTILEPIVHISNAGVYNINPDLTSTMDIQIGVPFTNKWDILCNLTEDLSLIDEYNQINKVNFTLLPENAYTAPESVTLQEGVSQITASYQLKNNLVPGNYILPIKIGSITASQGGVPNNSLVIDEESNVLFCIVKEGNKINKSGWEVIECSSEHAGNEATYMIDDNESTYWHCKFKNEAGSSVPPFHFIIDMKKEITIAQIDLLNRGDGAANNIKWVEFYASNNNSEWDKIGAGDFNDEGTRATFRYYVKSTKARYLKLIIPEGYGNNCPPAAIRELTVYGLEGNN,glycan array binding signal (z-score),[1],0.486
same,glycan array binding signal (z-score),[2],0.226
same,glycan array binding signal (z-score),[3],0.056
same,glycan array binding signal (z-score),[4],0.007
same,glycan array binding signal (z-score),[5],0.472
same,glycan array binding signal (z-score),[6],0.691
same,glycan array binding signal (z-score),[7],-0.139
same,glycan array binding signal (z-score),[8],0.372
same,glycan array binding signal (z-score),[9],-0.308
same,glycan array binding signal (z-score),[10],-0.223
same,glycan array binding signal (z-score),[11],-0.27
same,glycan array binding signal (z-score),[12],-0.326
same,glycan array binding signal (z-score),[13],-0.212
same,glycan array binding signal (z-score),[14],-0.252
same,glycan array binding signal (z-score),[15],-0.306
same,glycan array binding signal (z-score),[16],0.207
same,glycan array binding signal (z-score),[17],-0.328
same,glycan array binding signal (z-score),[18],0.135
same,glycan array binding signal (z-score),[19],0.014
same,glycan array binding signal (z-score),[20],-0.188
same,glycan array binding signal (z-score),[21],0.108
same,glycan array binding signal (z-score),[22],0.099
same,glycan array binding signal (z-score),[23],-0.373
same,glycan array binding signal (z-score),[24],-0.044
same,glycan array binding signal (z-score),[25],-0.27
same,glycan array binding signal (z-score),[26],-0.112
same,glycan array binding signal (z-score),[27],0.416
same,glycan array binding signal (z-score),[28],-0.021
same,glycan array binding signal (z-score),[29],0.272
same,glycan array binding signal (z-score),[30],0.033
same,glycan array binding signal (z-score),[31],6.47
same,glycan array binding signal (z-score),[32],6.71
same,glycan array binding signal (z-score),[33],-0.402
same,glycan array binding signal (z-score),[34],-0.089
same,glycan array binding signal (z-score),[35],-0.323
same,glycan array binding signal (z-score),[36],7.3
same,glycan array binding signal (z-score),[37],6.28
same,glycan array binding signal (z-score),[38],3.68
